Assay results published in ChEMBL document CHEMBL1159009, “Anti-influenza virus effect of some propolis constituents and their analogues (esters of substituted cinnamic acids)” (J Nat Prod, 1992).

System: Influenza B virus
Test: Antiviral activity against influenza B virus (B/Lee/1940) infected in hen chorioallantoic membrane assessed as inhibition of viral infectivity after 72 hrs

Question: `COc1cc(/C=C/C(=O)OCCC(C)C)ccc1O` [ISOPENTYL FERULATE] was tested. Which Activity did it give?
Answer: Its Activity is “inactive”.

Active and inactive are the calls of the source. No cut-off for these calls is given here.
